Measured values: PubChem BioAssay AID1030 (National Center for Advancing Translational Sciences (NCATS), 2008)
Hit rate of the full screen: of about 220,000 compounds, about 16,000 (7.3%) were called active. This list was built around the results that the source calls inconclusive (neither active nor inactive); the mix of calls is not that of the screen. Calls come from the whole dose curve; as a rule, active = well fitted inhibition curve with a large enough effect (not every such curve was filed as active); inconclusive = small, poorly fitted or top-dose-only effect, or another doubt; inactive = no such curve, though single readings can be large or run the other way. Potencies of inconclusive entries are left out as doubtful fits.
Potency is the fitted concentration of half-maximal effect; tags give direction and shape of the fitted curve.
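Throughout, for activity, negative = inhibition: plate controls were no enzyme wells and a reference inhibitor.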

These compounds were tested against Aldehyde dehydrogenase 1A1 (Homo sapiens) (UniProt P00352) (assay: qHTS Assay for Inhibitors of Aldehyde Dehydrogenase 1 (ALDH1A1)). Conditions: Purified ALDH1A1, NADH fluorescence, propionaldehyde substrate; series mostly up to 75.3 µM; activity, negative = inhibition: at the top concentration.
UniProt P00352, sequence (P00352 whole entry, looked up): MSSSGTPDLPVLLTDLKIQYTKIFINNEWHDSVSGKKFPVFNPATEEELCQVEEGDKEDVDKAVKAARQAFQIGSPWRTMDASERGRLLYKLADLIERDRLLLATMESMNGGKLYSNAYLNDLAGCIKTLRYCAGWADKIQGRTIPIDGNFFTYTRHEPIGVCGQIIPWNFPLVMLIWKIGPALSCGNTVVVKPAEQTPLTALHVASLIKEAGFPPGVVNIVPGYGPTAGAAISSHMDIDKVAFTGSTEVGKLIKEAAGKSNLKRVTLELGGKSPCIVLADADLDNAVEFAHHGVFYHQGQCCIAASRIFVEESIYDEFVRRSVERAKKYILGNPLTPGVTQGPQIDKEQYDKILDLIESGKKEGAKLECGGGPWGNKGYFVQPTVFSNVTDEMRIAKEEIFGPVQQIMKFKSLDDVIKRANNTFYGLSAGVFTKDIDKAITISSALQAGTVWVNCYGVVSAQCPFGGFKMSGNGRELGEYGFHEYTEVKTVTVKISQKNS
`COc1ccc(C2=NN3C(C2)c2ccccc2OC32C(=O)N(C)c3ccccc32)cc1` (configuration not stated) was tested, and the Potency was inconclusive [inhibitor, single point]. With `COC(=O)N1CCC2(CCN(Cc3ccccc3)CC2)CC1` the “activity, negative = inhibition” value was inactive: 4.57%. In the case of `O=C(CSc1nnc(COc2cccc3ccccc23)o1)N1c2ccccc2CCc2ccccc21`, the Potency is reported as active: 22.4 µM. For `CN1CCN(CC(=O)Nc2cc(N(C)C)nc3ccccc23)CC1`, the Potency was inconclusive [inhibitor, partial curve]. With `O=C(Nc1ccccc1)NC1CCN(Cc2nnnn2C2CCCCC2)CC1` the Potency was active: 14.1 µM. With `CC1(C)CC2CC(C)(CN2C(=O)Cc2ccccc2)C1` (configuration not stated) the Potency was inconclusive [inhibitor, single point]. In the case of `C#CCOCCOCCOCCNc1nc(N2CCN(C(=O)[C@H]([C@@H](C)CC)n3cc(CCCN=C(N)N)nn3)CC2)nc(N2CCN(C(=O)[C@H](CCCCN)n3cc(CCC(=O)O)nn3)CC2)n1`, the “activity, negative = inhibition” value is reported as inactive: 20.7%. With `C[C@H](C(=O)c1ccccc1)C(c1ccccc1)N1CCOCC1` (some centres not stated) the Potency was inconclusive [inhibitor, single point]. For `Cc1cc(C)cc([N+](=O)[O-])c1`, the “activity, negative = inhibition” value was inactive: 2.76%. With `CCOC(=O)NC(=O)CSc1nc(-c2ccc(C)c(C)c2)cn1-c1ccccc1` the Potency was inconclusive [inhibitor, single point]. `CCN(/N=C/c1ccc(Cl)cc1)c1cc(=O)n(C)c(=O)[nH]1` was tested, and the Potency was inconclusive [inhibitor, single point]. With `FC(F)(F)c1ccc(CN2CCCCCC2)cc1` the Potency was inconclusive [inhibitor, partial curve]. With `CCN1CCN(S(=O)(=O)c2ccc(Cl)c(C(=O)NC(C)(C)C)c2)CC1` the “activity, negative = inhibition” value was inactive: 6.63%. For `C/C(N)=C(/C#N)C(=O)COC(=O)Cc1coc2ccc3ccccc3c12`, the Potency was inconclusive [inhibitor, single point]. For `CCOC(=O)C1=C(C)NC(SCC(=O)Nc2nc(C)cs2)=C(C#N)C1c1cccs1` (configuration not stated), the Potency was inconclusive [inhibitor, partial curve]. With `O=C(NCC#CCOCc1ccccc1)c1ccccc1` the Potency was inconclusive [inhibitor, single point]. In the case of `CCCOc1ccc(N2C(=O)CC(NCc3cccs3)C2=O)cc1` (configuration not stated), the Potency is reported as inconclusive [inhibitor, single point]. `CC(C)CO/N=C1/C[C@@H](O)[C@@H](O)[C@@H]2[C@@H]3C(=O)N(c4cccc(Oc5ccccc5)c4)C(=O)[C@H]3CC[C@H]12` was tested, and the activity, negative = inhibition was inactive: -5.11% [at 13.5 µM]. For `CCN1CCN(c2cc(C)c3cc(NC(=S)N4CC(C)CC(C)C4)ccc3n2)CC1` (configuration not stated), the Potency was inconclusive [inhibitor, partial curve]. `COCCn1c(=O)c(CCc2ccccc2)nc2cnc(N3CCOCC3)nc21` was tested, and the Potency was inconclusive [inhibitor, partial curve]. `COc1ccc(OC)c2c(C)cc(C)nc12` was tested, and the “activity, negative = inhibition” value was inactive: 11.2%. With `CC(C)=C1C(=O)C(c2ccccc2)=C2CN3C(=O)N(CCc4ccccc4)C(=O)[C@]3(C)[C@H]21` the “activity, negative = inhibition” value was inactive: -5.39%. `COc1ccc(NC(=S)N(CCCN2CCCC(C)C2)Cc2cccs2)cc1` (configuration not stated) was tested, and the Potency was inconclusive [inhibitor, partial curve]. With `CCCCC1=CC2=CC(=O)C(C)(OC(=O)CCc3ccccc3)C(=O)C2=CO1` (configuration not stated) the “activity, negative = inhibition” value was inactive: 14.3%. For `O=C(Nc1nc2cc3c(cc2s1)OCCO3)c1cccc(N2C(=O)CCC2=O)c1`, the Potency was inconclusive [inhibitor, single point]. For `Nc1c2ccccc2nc2c(O)cccc12`, the “activity, negative = inhibition” value was inactive: -0.178% [at 20.9 µM]. `CCc1ccc(-c2ccc(SCC(=O)NCC3CCCO3)nn2)cc1` (configuration not stated) was tested, and the “activity, negative = inhibition” value was inactive: 3.06%. In the case of `CC(C)c1nc(N2CCOCC2)c(C#N)c2c1CCCC2`, the Potency is reported as inconclusive [inhibitor, partial curve]. For `N/C(=N\c1nc2c(c(=O)[nH]1)CCCC2)Nc1ccccc1Sc1ccccc1`, the “activity, negative = inhibition” value was inactive: -4.54%. `Cc1ccc(S(=O)(=O)c2c(N)n(/N=C/c3ccco3)c3nc4ccccc4nc23)cc1C` was tested, and the Potency was inconclusive [inhibitor, partial curve]. For `COCCn1c(=O)c(-c2cccc(C#N)c2)nc2cnc(Nc3ccccc3)nc21`, the Potency was inconclusive [inhibitor, single point]. For `Cc1nc(Nc2ccccc2)sc1C(=O)Nc1ccccc1`, the “activity, negative = inhibition” value was inactive: -5.78%. `CCOC(=O)c1ccccc1NC(=O)c1cc2sccc2n1C` was tested, and the Potency was inconclusive [inhibitor, single point]. `COc1cc(C2C(C(=O)N3CCOCC3)=C(C)NC3=C2C(=O)CCC3)ccc1OC(C)=O` (configuration not stated) was tested, and the Potency was inconclusive [inhibitor, partial curve]. For `CCC(C)Nc1nc2c(c(=O)n(C)c(=O)n2C)n1Cc1cccc(C)c1` (configuration not stated), the Potency was inconclusive [inhibitor, full curve]. For `CCn1cc(C(=O)NCCCN2CCCCCC2)c(=O)c2cc(S(=O)(=O)N3CCc4ccccc4C3)ccc21`, the Potency was active: 7.94 µM. With `Cc1cccc(NC(=S)NC(=O)/C=C/c2ccco2)c1` the Potency was active: 23.8 µM. `CCn1cc(C(=O)OC)c(=O)c2cc(S(=O)(=O)N(C)C3CCCCC3)ccc21` was tested, and the Potency was inconclusive [inhibitor, single point]. `Cc1nnc(NC(=O)CSc2nc3[nH]ncc3c(=O)[nH]2)s1` was tested, and the Potency was inconclusive [inhibitor, single point]. `c1ccc(C2CC(c3cccs3)n3nnnc3N2)cc1` (configuration not stated) was tested, and the Potency was inconclusive [inhibitor, single point]. With `COc1ccc(N2C=C3C(=O)C(C)(OC(=O)C4CCCC4)C(=O)C=C3C=C2c2ccsc2)cc1` (configuration not stated) the Potency was inconclusive [inhibitor, partial curve]. `COc1cccc(C2=Nc3cccc4cccc(c34)N2)c1` was tested, and the Potency was inconclusive [inhibitor, single point]. In the case of `CON1C(=O)C(=O)N(OC)C(C)(C)C1(C)C`, the Potency is reported as active: 20 µM. `Cc1ccc(N2C(N)=C(C#N)C3(C(=O)N(C)c4ccccc43)C3=C2CC(C)(C)CC3=O)cc1Cl` (configuration not stated) was tested, and the “activity, negative = inhibition” value was inactive: 10.5%. With `O=C(NCc1ccccc1)c1cccc(COc2cc(Cl)ccc2Cl)c1` the “activity, negative = inhibition” value was inactive: 18.4%. With `COC(=O)CCCCCN1C(=O)NC(CC2CC2)C(C(=O)OCc2ccccc2)=C1C` (configuration not stated) the Potency was inconclusive [inhibitor, single point]. For `NNC(=O)c1ccc2[nH]c3c(c2c1)CCCC3`, the Potency was active: 17.8 µM. `O=C(Nc1ccccc1-c1nnn(CC(=O)N2CCCc3ccccc32)n1)c1ccc(Cl)cc1` was tested, and the Potency was inconclusive [inhibitor, single point]. In the case of `CCC(C)c1ccc(NC(=O)CN(C)CC(=O)Nc2cccc(OC)c2)cc1` (configuration not stated), the Potency is reported as inconclusive [inhibitor, single point]. In the case of `S=c1[nH]nc(C2CCCCC2)n1/N=C/c1ccccn1`, the Potency is reported as active: 3.55 µM. For `CSc1ccccc1NC(=O)Cn1c(-c2cscn2)nc2ccccc21`, the “activity, negative = inhibition” value was inactive: -5.89%. With `COC(=O)C1(C)CN(S(=O)(=O)c2ccc(C)cc2)c2cc(OC)ccc2C1=O` (configuration not stated) the Potency was inconclusive [inhibitor, single point]. `CC(C)(C)c1ccc(S(=O)(=O)NC(Cc2ccccc2)C(=O)O)cc1` (configuration not stated) was tested, and the Potency was inconclusive [inhibitor, partial curve]. In the case of `O=C(c1ccco1)N1CCN(C(=O)C2CCCN(S(=O)(=O)Cc3ccccc3)C2)CC1` (configuration not stated), the Potency is reported as inconclusive [inhibitor, single point]. With `O=C(CCCc1cccs1)Nc1nc2c(s1)CCCC2` the “activity, negative = inhibition” value was inactive: -13%. In the case of `CC1=C(C(=O)N(C)C)C(c2ccccc2OC(F)F)NC(=O)N1` (configuration not stated), the “activity, negative = inhibition” value is reported as inactive: 0.853%. For `O=Cc1cc(N=Nc2cccc(C(=O)O)c2)ccc1O`, the Potency was inconclusive [inhibitor, partial curve]. In the case of `CCOc1ccc(Nc2ncnc3c2cnn3-c2ccccc2)cc1`, the “activity, negative = inhibition” value is reported as inactive: -9.5%. With `CCOC(=O)c1ccc(NC(=O)C2C3C=CC(C3)C2C(=O)O)cc1` (configuration not stated) the Potency was inconclusive [inhibitor, single point]. `O=C(NC1=NCCS1)c1cccc2ccccc12` was tested, and the “activity, negative = inhibition” value was inactive: 2.46%. With `CC(=O)NN=C1CCC(c2ccccc2)CC1` (configuration not stated) the “activity, negative = inhibition” value was inactive: 11%. For `COCCNc1nc(C)nc2c1nc(-c1ccccc1)n2C1CCN(Cc2ccccc2)C1` (configuration not stated), the Potency was inconclusive [inhibitor, single point]. `O=C(CNC(=S)N(CCCN1CCOCC1)Cc1cccs1)N1CCCC1` was tested, and the “activity, negative = inhibition” value was inactive: 4.6%. In the case of `CC(NC(=O)c1ccc(N(C)C)cc1)C1CC2CCC1C2` (configuration not stated), the Potency is reported as inconclusive [inhibitor, partial curve]. In the case of `S=c1[nH]nc(-c2ccc(Cl)cc2)n1Cc1ccccc1`, the Potency is reported as active: 11.2 µM. For `CCOC(=O)N1CCN(c2nc3ccccc3nc2C(C#N)S(=O)(=O)c2ccc(C)cc2)CC1` (configuration not stated), the Potency was inconclusive [inhibitor, single point]. For `C=CCSC1=C(C#N)C(c2ccccc2)CC(=O)N1` (configuration not stated), the Potency was inconclusive [inhibitor, single point]. For `Cc1nc(N2CCN(S(=O)(=O)c3ccccc3)CC2)c2cc(-c3ccccc3)sc2n1`, the Potency was inconclusive [inhibitor, partial curve]. `Cc1cnc(CNc2ccnc(-c3ccccc3CN(C)C)n2)cn1` was tested, and the Potency was inconclusive [inhibitor, single point]. For `CC1=NN(C(C#N)c2c(C)nn(Cc3ccccc3)c2C)C(C)(C)C1` (configuration not stated), the “activity, negative = inhibition” value was inactive: 1.14%. `O=C1/C(=C/c2cccnc2)CCC/C1=C\c1cccnc1` was tested, and the “activity, negative = inhibition” value was inactive: -2.96%. With `CCn1c2ccccc2c2cc(NC(=O)C(C)Oc3ccccc3)ccc21` (configuration not stated) the Potency was inconclusive [inhibitor, partial curve].
